Among the data in PubChem BioAssay AID1362 (SRMLSC, 2008) are inhibition values, retold here.

The structures appear in SMILES notation. The list shows a part of the results. The main result of the screen is listed elsewhere. These columns were measured beside it and carry no call. The list favours compounds with an active or inconclusive main result.

The assay is described as follows: growth inhibition of WT strain, primary screen, mitochondrial fusion inhibitor project, WT and mutant strains, chemical genetic (AID 1362). Also: tested in S. cerevisiae. The following applies: mitochondrial fusion phenotypic screen, at 10 µM.
`CCN1CCN(c2cc(N3CCc4ccccc4C3)c(F)cc2[N+](=O)[O-])CC1`: the inhibition amounted to 33.5%. In the case of `CC(C)COc1ccc(CNC(=S)NCc2ccccc2)cc1`, the inhibition was 66.2%. Consider `COc1ccc(-c2csc(Nc3ccc(C)cn3)n2)cc1`, for which the inhibition was found to be 54.5%. As to `S=C(NNc1cccc(Cl)c1)NC1CCCCC1`, the inhibition was determined as 25.3%. As for `C/C(=N\NC(=O)c1ccccc1O)c1ccc(Br)s1`, the figure is 64.4%; as for `N/C(=N/O)c1ccccc1N1CCC(Cc2ccccc2)CC1`, 64.7%; as for `Cc1cccc2nc(CSc3ccc(Cl)cc3)cn12`, 61.2%.

In the case of `Cc1cc(C)n(CC(O)Cn2c3ccc(Br)cc3c3cc(Br)ccc32)c(=O)n1` (stereo unspecified), the inhibition amounted to 5.42%. As to `CCCc1cc(-c2nc(-c3ccc(Br)cc3)cs2)ccn1`, the inhibition came out at 62.1%. In the case of `O=S(Cc1ccc(Br)cc1)Cc1nnc(SCc2ccc(Br)cc2)n1-c1ccccc1` (stereo unspecified), the inhibition was -3.35%. Consider `COC(=O)c1c(NC(=O)CN2CCC3(O)CCCCC3C2c2ccc(F)cc2)sc(C)c1C` (stereo unspecified), for which the inhibition was -0.63%. As for `COc1ccc2c(c1)C=C(C(=O)NCc1ccc(Cl)cc1)CO2`, the inhibition stood at 50.4%.

Turning to `CCOC(=O)c1c(CN2CCN(Cc3ccccc3)CC2)n(C)c2cc(Br)c(OC)cc12`, the inhibition was 90.5%. Consider `Cc1ccc(C(=O)c2c(NC(=O)c3cccnc3)sc3c2CCCC3)cc1`, for which the inhibition is 29.5%. As for `CC(C)c1ccc(S(=O)(=O)/N=C2/C=CC(=O)c3ccccc32)cc1`, the figure is 15.8%; as for `O=[N+]([O-])c1ccc(NCCCNS(=O)(=O)c2ccc(Cl)cc2)c(Cl)c1`, 25.5%. As for `NC(=O)c1ccc(NC(=O)COC(=O)c2c3c(nc4ccccc24)/C(=C\c2cccs2)CCC3)cc1`, the inhibition is 38.5%. `COc1ccc(C(C)(C)C)cc1NC(=O)c1cncc(Br)c1`: the inhibition was -1.97%. As for `Cc1cc(C)c(S(=O)(=O)/N=C2/C=C(SCC(=O)O)C(=O)c3ccccc32)cc1C`, the inhibition was found to be 43%. For the compound `O=C(CSc1nnc(CCc2ccccc2)n1-c1ccc(Cl)cc1)c1ccccc1`, the inhibition was found to be 4.34%. `Fc1ccc(N2CCN(C3=Nc4cccc5cccc3c45)CC2)cc1`: the inhibition is 34%. As for `Cc1ccc(NC(=O)C2(c3ccccc3)CC2(Cl)Cl)cc1C` (stereo unspecified), the inhibition is -12.2%. In the case of `CCNc1nc(NC(C)C)nc(N(C#N)CCOc2ccc(Cl)cc2Cl)n1`, the inhibition worked out at 39.4%. As for `O=[N+]([O-])c1ccc(N/N=C\c2cccn2-c2ccccc2)nc1`, the figure is 38.5%; as for `COc1cc(Cl)cc(/C=C/c2ccc3ccccc3n2)c1OC(C)=O`, 25.1%. On to `Cc1nc(Nc2ccc(Cl)cc2Cl)sc1C(=O)Nc1ccccc1`, for which the inhibition was found to be 61.3%. The same measure for `CC1C/C(=N\NC(=S)NCc2ccccc2)CC(C)(C)C1` (stereo unspecified): 62.3%.

Turning to `CC1C(c2ccccc2)N(C)C(c2ccccc2)CC1(O)c1ccc(F)cc1` (stereo unspecified), the inhibition was 22.1%. On to `COc1ccccc1N1CCN(c2ncc(C(=O)N3CCN(c4cccc(Cl)c4)CC3)c3ccccc23)CC1`, for which the inhibition worked out at 46.3%. As for `O=C(Nc1nc(-c2ccccc2)cs1)c1ccccc1NS(=O)(=O)c1ccc(F)cc1`, the figure is 58.2%.

On to `COC(=O)C1=CN(CCOC23CC4CC(CC(C4)C2)C3)C=C(C(=O)OC)C1c1ccsc1`, for which the inhibition was 3.15%.

Consider `CCc1nc(N2CCC(C)CC2)c2oc3ccccc3c2n1`, for which the inhibition turned out to be 65.5%. As to `COc1ccc(-c2cc3nc(C)cc(N4CC(C)CC(C)C4)n3n2)cc1` (stereo unspecified), the inhibition worked out at 8.88%. The same measure for `COc1ccc(/C=C/C(=O)c2cc(Br)ccc2OC(=O)c2ccco2)cc1OC`: 34.2%; for `COc1cccc2c1C(=O)c1c(O)c3c(c(O)c1C2=O)C[C@@](O)(C(C)=O)C[C@@H]3O[C@H]1C[C@H](N)[C@H](O)[C@H](C)O1`: 50.4%; for `Cc1ccc(C)c(NC(=O)c2cc(-c3ccccc3)nn2-c2ccccc2)c1`: -3.55%. Consider `Cc1cc(C)cc(NC(=S)NCCSc2ccc(Cl)cc2)c1`, for which the inhibition turned out to be 28.4%. As for `O=[N+]([O-])c1ccc2nc(/C=C/c3ccc(Cl)cc3)[nH]c2c1`, the figure is 57.5%; as for `CCCN(CCC)CCCNC(=O)CS(=O)Cc1nc(-c2ccc(OC)c(OC)c2)oc1C` (stereo unspecified), 0.8%; as for `Cc1cc(C)c(CSc2ncnc3nc[nH]c23)c(C)c1`, 66.4%. As for `O=C(/C=C/c1ccc(N2CCCCC2)c([N+](=O)[O-])c1)c1ccc(O)cc1`, the figure is 83.8%; as for `Cc1cccc(Nc2nc(N)c([N+](=O)[O-])c(N3CC(C)CC(C)C3)n2)c1` (stereo unspecified), 83.4%. Turning to `NC(=O)c1ccc(N2CCCCC2)c(N2C(=O)C3CC=CCC3C2=O)c1` (stereo unspecified), the inhibition is -0.48%. The same measure for `O=S(=O)(Nc1nc2ccccc2nc1NCc1ccco1)c1ccc(Cl)cc1`: 18.7%. As to `Oc1c(Br)cc(Br)cc1CNc1ccc(F)cc1`, the inhibition amounted to 51.8%. Take `Cc1cc(C)c(C#N)c(N2CCN(CCOc3ccc(Cl)cc3)CC2)n1`: the inhibition stood at 49.6%. Take `Cc1ccc(S(=O)(=O)c2c(C)nn(C(C)(C)C)c2OC(=O)C2CCCC2)cc1`: the inhibition amounted to 26.8%. As for `CN(C)c1nc(-c2ccccn2)nnc1-c1ccccc1`, the inhibition amounted to 58.3%. Turning to `Cc1ccc(-c2c(C(=O)N(C)Cc3ccccc3)oc(=O)c3ccccc23)cc1`, the inhibition came to 33.6%. As for `COc1ccc(C(=O)c2c(C(F)(F)F)oc3c2C(=O)c2ccccc2C3=O)cc1OC`, the inhibition is 76.7%.

For the compound `COCCN1C(=O)/C(=C/c2ccc(OCc3ccc(C(=O)O)cc3)c(OC)c2)SC1=Nc1ccccc1`, the inhibition was determined as 6.07%. On to `O=C(N/N=C/C(Br)=C/c1ccccc1)NC1CCCCC1`, for which the inhibition was found to be 86%. For the compound `CCOC(=O)C(CC)(CC)C(=O)/C=C/c1ccc(Br)cc1`, the inhibition came to 12.7%. As for `CCCc1cc(C(=O)Cc2ccc(F)cc2)c(O)cc1O`, the figure is 41%.

Regarding `CN(C(=S)Nc1ccc(SC(F)F)cc1)c1ccc(O)cc1`, the inhibition stood at 31.4%. As to `O=C(/C=C/c1ccco1)Nc1ccccc1N1CCCCC1`, the inhibition is 20.9%. As for `CC(C)(C)c1ccc(OCC(=O)N2CCCCCC2)c(Br)c1`, the inhibition worked out at 15.8%. The same measure for `Cc1cc(C)n(-c2nc3sc4c(c3c(=O)[nH]2)CCCC4)n1`: 65.4%; for `CCC(C)c1ccc(NC(=S)NC(C)C2CCCO2)cc1` (stereo unspecified): 48.5%. Consider `COc1ccc2ccc3c(c2c1)N=CC1(O3)N(C)c2ccccc2C1(C)C` (stereo unspecified), for which the inhibition stood at 13.6%. Consider `CC(C)C1Nc2c(O)cc(Cl)c([N+](=O)[O-])c2C2C=CCC21` (stereo unspecified), for which the inhibition was 43.4%. `Cc1ccc(NC(=O)C2SC(=Nc3ccccc3)C(C(=O)Nc3ccc(Cl)cc3)=C2N)cc1` (stereo unspecified): the inhibition was found to be 9.64%. In the case of `Cn1c(N/N=C/c2ccccc2)nc2sc3c(c2c1=O)CCC3`, the inhibition came out at 60.5%. Regarding `CCOC(=O)C1CCC(CN(Cc2ccccc2C)S(=O)(=O)c2ccc([N+](=O)[O-])cc2)CC1` (stereo unspecified), the inhibition worked out at 29.1%. On to `Cc1onc(-c2ccccc2)c1C(=O)Nc1nnc(COc2ccc(Cl)cc2)s1`, for which the inhibition is 39.3%. `COc1cc(/C=N/N(C)c2ccccc2)cc(Cl)c1O`: the inhibition is 44.8%. The same measure for `O=C(COC(=O)c1cc(Cl)ccc1[N+](=O)[O-])NCc1ccc(Cl)cc1Cl`: 23.5%; for `Cc1cccc(NC(=S)N(C)Cc2cn(C)c3ccccc23)c1`: 53.5%. `CCCSc1cc(N2CCN(C)CC2)nc(-c2ccc(OC)cc2)n1`: the inhibition turned out to be 91.7%. With `COc1cc2[nH]c(=O)n(CCC(=O)N3CCC(N4CCCCC4)CC3)c(=O)c2cc1OC`, the inhibition was 34.3%. As for `CCc1ccccc1NC(=S)N(Cc1ccco1)C(C)c1cccs1` (stereo unspecified), the figure is 27.6%; as for `O=C(Nc1ccccc1Sc1ccccc1)c1ccc(F)cc1`, 23.3%; as for `CS(=O)(=O)c1nc2ccccc2n1Cc1ccccc1`, 2.28%. The same measure for `O=C(c1ccc(F)cc1)C(CN1CCOCC1)c1ccccc1` (stereo unspecified): 70.1%; for `CCCCc1ccc(NC(=S)NCc2ccccc2OC)cc1`: 25.6%; for `Cc1ccc(NC(=S)N(CCCN2CCCC2)Cc2cccn2Cc2ccc(Cl)cc2)cc1C`: 25.6%. `O=C(C1=C[C@H](c2csc3ccccc23)C[C@H](OCc2ccc(CO)cc2)O1)N1CCN(Cc2ccccc2)CC1`: the inhibition worked out at 37.7%.

As for `CC1=NN(C(N)=S)C(=O)C1N=Nc1ccccc1` (stereo unspecified), the inhibition stood at 52.9%. Regarding `O=C(Nc1ccccc1)C1=C[C@@H](c2ccc(C(F)(F)F)cc2)C[C@@H](OCc2ccc(CO)cc2)O1`, the inhibition is 14.5%. In the case of `O=C(c1cc2ccccc2o1)N1CCN(c2ccccc2Cl)CC1`, the inhibition stood at 52.2%. As for `N#C/C(=C\c1ccccc1[N+](=O)[O-])C(=O)NC1CCCCC1`, the figure is 34.1%. As to `CC1CCC(C(C)C)C(OC(=O)COC(=O)c2cccn2C)C1` (stereo unspecified), the inhibition was 24.9%. With `CCCCCCCCOC(=O)CCn1[nH]c(=O)c2ccccc2c1=O`, the inhibition is 79.1%. As for `S=C(c1ccc(-c2cccc(Cl)c2)o1)N1CCCCC1`, the figure is 22.8%.

For `NNC(=O)c1cccc(COc2ccc(Br)cc2)c1`, the inhibition is 54%. On to `Cc1cccc(N2C(=O)C(Oc3ccc(Cl)cc3Cl)C2C=O)c1C` (stereo unspecified), for which the inhibition came to 17.9%. As for `CN1CCN(c2ccc(Cl)cc2NC(=O)/C=C/c2ccc(F)cc2)CC1`, the inhibition turned out to be 59.5%. As for `CCCCSc1nnc(CNC(=O)C23CC4CC(CC(C4)C2)C3)n1Cc1ccccc1`, the inhibition is -2.99%. For `C/C=C(/C(=C/C)c1ccc(O)cc1)c1ccc(O)cc1`, the inhibition came out at 10.7%. With `CCn1c(CN2CCN(c3ccc(Cl)cc3)CC2)nc2ccccc21`, the inhibition is 35.6%. Regarding `Cc1c(C(=O)N2CCC(C)CC2)sc2ncnc(N(C)c3ccccc3)c12`, the inhibition was determined as 72%. In the case of `CCCCn1c(CN2CCN(c3cccc(Cl)c3)CC2)nc2c1c(=O)n(C)c(=O)n2C`, the inhibition was found to be 27.8%. Take `CCCCc1ccc(-n2c(Cc3cccs3)n[nH]c2=S)cc1`: the inhibition worked out at 52.7%. Consider `O/N=C(\c1ccc(Cl)cc1Cl)c1ncc(C(F)(F)F)cc1Cl`, for which the inhibition was found to be 15.9%.

Take `CC(C)(C)c1ccc(CNc2ccc([N+](=O)[O-])cn2)cc1`: the inhibition stood at 19.2%. Consider `O=C1CSC(=NC2CCCCC2)N1`, for which the inhibition is 46.9%. With `CCOC(=O)C(=O)NNc1ccc(C)cc1`, the inhibition amounted to 58.6%.

As for `FC(F)(F)c1ccc(N2CCN(c3cc(-c4ccccc4)nc4ncnn34)CC2)nc1`, the inhibition came out at 42.9%. As for `Cc1cccc(-c2ncc(CN3CCCC(CO)(Cc4ccccc4C)C3)cn2)c1` (stereo unspecified), the inhibition stood at 46.3%. `C(=N\Nc1nc(Nc2ccccc2)nc(N2CCCCC2)n1)/c1ccco1`: the inhibition is 14.7%. Turning to `Cc1c(C(=O)Nc2ccccc2[N+](=O)[O-])csc1-c1ccccc1`, the inhibition is 68.5%. Consider `c1ccc(CC2CCN(c3ncnc4sccc34)CC2)cc1`, for which the inhibition is 17.6%.

As to `CC(=O)N1N=C(c2ccc(C)cc2)OC1c1ccc(Br)cc1` (stereo unspecified), the inhibition was -0.36%.

For `COc1ccc(CNC(=O)C2CC(=O)N(c3ccc(OCC(=O)N4C(C)CCCC4C)cc3)C2)cc1` (stereo unspecified), the inhibition was -5.68%. `Cc1cc(C)c(C)c(OCCCOc2cccc3cccnc23)c1`: the inhibition was determined as 75.2%. Turning to `CC(C)(C)c1ccc(S(=O)(=O)N2CCC(c3nc4ccc(Cl)cc4[nH]3)CC2)cc1`, the inhibition amounted to 31.8%.
